In a compilation of properties of binary mixtures (doi:10.1021/acs.jced.0c00426):
The densities may have been worked out from excess volumes.

Assay: xn = mol fraction of the nth substance listed
Settings: 101.3 kPa

CNc1ccccc1 + CCCCCCCCn1cc[n+](C)c1.F[B-](F)(F)F
x2 = 0
Settings	mass density [kg/m3]
298.15 K	984.4
303.15 K	980.3
308.15 K	976.2
313.15 K	972.2
318.15 K	968.1
323.15 K	964

CNc1ccccc1 + CCCCCC[n+]1ccn(C)c1.F[B-](F)(F)F
mass density [kg/m3]
Settings	x2 = 0	x2 = 0.1058	x2 = 0.2201	x2 = 0.3079	x2 = 0.395	x2 = 0.501	x2 = 0.6034	x2 = 0.7024	x2 = 0.804	x2 = 0.8984
293.15 K	988.4	–	1053.7	1072.1	1086.9	1101.2	–	1122.4	1131.2	1138.7
298.15 K	984.4	1019.5	1050.2	1068.7	–	1098	1109.6	1119.3	1127.9	1135.4
303.15 K	980.3	–	1046.6	1065.1	1080	1094.5	–	1115.9	1124.6	1132.2
308.15 K	–	1011.8	1042.8	–	–	–	1103	1112.6	1121.3	1128.9
313.15 K	972.2	1008.1	1039	1057.8	1073.1	1087.7	1099.8	1109.2	1118.1	–
318.15 K	968.1	–	1035.3	1054.2	1069.5	–	1096.4	1105.8	1114.8	1122.4
323.15 K	–	1000.5	1031.5	1050.6	1066	1080.9	1092.8	1102.5	1111.4	1119
